Out of some 370,000 compounds screened, about 150 (0.041%) were called active. This list was built around the results that the source calls inconclusive (neither active nor inactive); the mix of calls is not that of the screen. The call rests on the fitted dose curve; in most records, active means well fitted inhibition curve with a large enough effect; inconclusive means small, poorly fitted or top-dose-only effect; inactive means flat fitted curve, though single readings scatter. Potencies of inconclusive entries are left out as doubtful fits.
Molecular target: Beta-lactamase (Escherichia coli (strain K12)) (UniProt P00811)
Assay: qHTS Inhibitors of AmpC Beta-Lactamase (assay with detergent); further: nearly all actives have a fitted effect of over 25% in size;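 on activity change, negative = inhibition: 0% = no-compound wells and -100% = no-enzyme wells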
Settings: AmpC hydrolysis of nitrocefin, absorbance 480 nm, 0.01% Triton; activity change, negative = inhibition: at 114 µM (top of the series)
In short: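 20 mM phosphate pH 7.0 + 0.01% (detergent screen) or 0.0001% Triton X-100; 5.3 nM AmpC reagent; cpd preinc 15 min RT; nitrocefin (800 uM stock) to start; A480 q20 s × 4 min; Activity was normalised to no-enzyme and no-compound control wells.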
Potency means the concentration at half of the fitted maximal effect; tags describe the fitted curve by direction and shape.

UniProt P00811, sequence (P00811 whole entry, looked up): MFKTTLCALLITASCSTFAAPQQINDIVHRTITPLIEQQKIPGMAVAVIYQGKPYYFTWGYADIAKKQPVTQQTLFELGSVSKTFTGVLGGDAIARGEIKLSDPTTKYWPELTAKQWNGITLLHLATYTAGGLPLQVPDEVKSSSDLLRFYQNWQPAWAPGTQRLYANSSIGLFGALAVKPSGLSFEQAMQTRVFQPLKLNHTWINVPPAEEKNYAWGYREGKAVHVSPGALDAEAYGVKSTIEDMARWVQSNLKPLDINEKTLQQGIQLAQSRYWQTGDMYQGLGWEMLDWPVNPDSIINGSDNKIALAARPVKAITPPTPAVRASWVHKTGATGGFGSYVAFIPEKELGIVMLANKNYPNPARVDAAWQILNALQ

Row | SMILES | Potency | activity change, negative = inhibition
1 | CCOc1ccc(/C=C/C(=O)c2cc(Br)ccc(=O)c2O)cc1 | inconclusive [inhibitor, partial curve, poor fit] | 
2 | Cc1cc2ncc(C(=O)Nc3ccccc3)c(C)n2n1 | inconclusive [inhibitor, partial curve] | 
3 | Fc1ccc([C@@H]2Nc3ccccc3[C@@H]3C=CC[C@@H]32)cc1 |  | inactive: 9.87%
4 | CCCCSc1nnc2c(n1)[nH]c1ccccc12 | inconclusive [inhibitor, full curve] | 
5 | CCn1c(C)nc2cc(C(=O)NNC(=S)Nc3ccc(OC)cc3)ccc21 | inconclusive [inhibitor, full curve, poor fit] | 
6 | C=CCn1c(O)c(/C(C)=N/N2CCCCCC2)c(=O)[nH]c1=O |  | inactive: -0.99%
7 | COc1ccc(C(c2nnnn2C(C)(C)C)N2CCN(C)CC2)cc1OC (stereo not given) | inconclusive [inhibitor, partial curve] | 
8 | COc1ccc(-c2cc(C3CCN(c4ncccc4[N+](=O)[O-])CC3)[nH]n2)cc1 | inconclusive [inhibitor, partial curve, poor fit] | 
9 | CN(C)CCCN(C(=O)c1ccc(C(=O)c2ccccc2)cc1)c1nc2ccc(F)cc2s1 | inconclusive [inhibitor, full curve, poor fit] | 
10 | COc1ccc(-c2cc(C(F)(F)F)nc(SCCC(=O)Nc3ccc(O)cc3)n2)cc1 |  | inactive: 18.6%
11 | O=C(O)c1ccc2c(c1)C(=O)N([C@H](Cc1ccc(-c3ccccc3)cc1)C(=O)O)C2=O | inconclusive [inhibitor, partial curve] | 
12 | CCC/C=N/NC(=O)c1cc(Br)ccc1O | inconclusive [inhibitor, full curve] | 
13 | O=C(NCCc1ccccc1)C1CCC(CNc2nc(=S)[nH]c3ccccc23)CC1 (stereo not given) |  | inactive: 3.19%
14 | O=C(c1ccco1)N1CCN(CCOCCOc2cccc3ccccc23)CC1 | inconclusive [inhibitor, full curve] | 
15 | OC[C@H]1OC(O)C[C@@H](O)[C@@H]1O (stereo not given in full) | inconclusive [inhibitor, full curve, poor fit] | 
16 | O=C1/C(=C\c2ccc(Br)o2)Cc2ccccc21 | inconclusive [inhibitor, full curve] | 
17 | Cc1ccc2nc(NC(=O)CCn3cccc3)sc2c1 | inconclusive [inhibitor, full curve, poor fit] | 
18 | O=C(N/N=C/c1ccc(OCc2ccccc2)cc1)c1cccs1 |  | inactive: 3.41%
19 | CN1CCN(S(=O)(=O)c2ccc(N3CCN(S(=O)(=O)/C=C/c4ccccc4)CC3)nc2)CC1 | inconclusive [inhibitor, full curve, poor fit] | 
20 | C=CCn1c(SCC(=O)NC2CCCC2)nc2scc(-c3ccco3)c2c1=O | inconclusive [inhibitor, full curve, poor fit] | 
21 | COc1ccccc1C1NC(=O)c2ccccc2O1 (stereo not given) | inconclusive [inhibitor, full curve, poor fit] | 
22 | Cc1ccccc1C(NC(N)=O)c1ccccc1 (stereo not given) | inconclusive [inhibitor, full curve, poor fit] | 

Row | SMILES | Potency | activity change, negative = inhibition
23 | O=C(/C=C/c1ccc(F)cc1)N1CCc2ccccc2C1 |  | inactive: -4.92%
24 | CCC(=O)Nc1nc2ccc3nc(C)sc3c2s1 | inconclusive [inhibitor, full curve, poor fit] | 
25 | COCCn1c(-c2ccc(OC)cc2)cnc1SCC(=O)Nc1cc(C)on1 | inconclusive [inhibitor, full curve, poor fit] | 
26 | COc1cc(-c2ccccc2)[nH]c(=S)n1 |  | inactive: 6.1%
27 | CCOC(=O)c1ccc(NC(=S)N2CCSC2c2ccc(OC)cc2)cc1 (stereo not given) | inconclusive [inhibitor, full curve, poor fit] | 
28 | CCOc1ccccc1CN1C(=O)c2ccccc2C1C(=O)NC(C)CC (stereo not given) |  | inactive: 4%
29 | O=C(Cn1nc(-c2ccc(Cl)cc2)ccc1=O)NCCCN1CCN(Cc2ccccc2)CC1 | inconclusive [inhibitor, full curve, poor fit] | 
30 | Cc1cc(C)cc(-n2c(C)cc(/C=C3\C(=N)N4N=C(CC(C)C)SC4=NC3=O)c2C)c1 | inconclusive [inhibitor, full curve] | 
31 | Cc1cc(C)cc(-n2ncc3c2CCCC3NC(=O)CN2CCCC2=O)c1 (stereo not given) |  | inactive: -13.9%
32 | Cc1nn(Cc2c(F)c(F)c(F)c(F)c2F)c(C)c1NC(=O)c1cccc(COc2ccc(Cl)cc2)c1 | inconclusive [inhibitor, partial curve, poor fit] | 
33 | CCCCCc1ccc(-c2ccc(C(=O)Oc3ccc(C(=O)OC)cc3)cc2)nc1 |  | inactive: 9.96%
34 | CC(C)(C)C1CCc2c(sc(NC(=O)CSc3ncn[nH]3)c2C#N)C1 (stereo not given) | inconclusive [inhibitor, partial curve] | 
35 | O=C(NC1CC2CCCC(C1)N2Cc1ccco1)NC12CC3CC(CC(C3)C1)C2 (stereo not given) | inconclusive [inhibitor, full curve, poor fit] | 
36 | CCn1c(COc2ccc(Cl)cc2)nnc1SCc1ccc(C#N)cc1 | inconclusive [inhibitor, full curve] | 
37 | COc1cccc(CCc2nnc(CCC(=O)NCCc3cccc(C)n3)o2)c1 | inconclusive [inhibitor, single point] | 
38 | CN(C)C(=O)CSc1nc(-c2ccccc2)nc2c1CCCC2 | inconclusive [inhibitor, single point] | 
39 | Cc1nc2sccn2c1-c1csc(NCc2ccccc2)n1 |  | inactive: -4.8%
40 | Cc1ccc(N2CC(C(=O)N3CCC4(CC3)CC(=O)c3ccccc3O4)CC2=O)cc1 (stereo not given) | inconclusive [inhibitor, single point] | 
41 | COc1cccc(CN(CC2CCCO2)S(=O)(=O)c2ccc(S(=O)(=O)NCC3CCCO3)cc2)c1OC (stereo not given) | inconclusive [inhibitor, partial curve, poor fit] | 
42 | S=C(NCc1ccc(Cl)c(Cl)c1)Nc1ccc2c(c1)OCO2 | inconclusive [inhibitor, full curve, poor fit] | 
43 | COCCn1c(O)c(/C=N/NC(=O)CSC(=S)N2CCCC2)c(=O)[nH]c1=S | inconclusive [inhibitor, full curve, poor fit] | 
44 | O=C(O)CCc1ccc(-c2ccc(Br)cc2)n1NC(=O)c1ccc([N+](=O)[O-])cc1 |  | inactive: 5.11%

Row | SMILES | Potency | activity change, negative = inhibition
45 | CCCCn1c(SCC(=O)N(CC)C2CCS(=O)(=O)C2)nnc1C(CC)N(C)C (stereo not given) | inconclusive [inhibitor, single point] | 
46 | CCN1C(=S)N[C@@H](c2cccc(C(F)(F)F)c2)C(C(=O)OC)=C1C | inconclusive [inhibitor, partial curve] | 
47 | Cc1cccc(C(=O)NCC(=O)OCc2nnc(-c3ccccc3)o2)c1 | inconclusive [inhibitor, full curve, poor fit] | 
48 | COCc1[nH]nc2c1C1(C(=O)Nc3ccc(F)cc31)C(C#N)=C(N)O2 (stereo not given) | inconclusive [inhibitor, partial curve, poor fit] | 
49 | Cc1cc(C)cc(NC(=O)C2CCN(S(=O)(=O)c3c(C)noc3/C=C/c3ccco3)CC2)c1 |  | inactive: 4.08%
50 | COn1c(SCC(=O)N(C)C)nc2ccccc2c1=O | inconclusive [inhibitor, partial curve, poor fit] | 
51 | Nc1nc(SCC(=O)Nc2ccc(S(N)(=O)=O)cc2)n[nH]1 | inconclusive [inhibitor, single point] | 
52 | CC1CCN(CCCNC(=O)c2ccc(Cn3c(=S)[nH]c4ccc(Br)cc4c3=O)cc2)CC1 | inconclusive [inhibitor, single point] | 
53 | COc1cccc(-c2nc(NC(C)(C)C)c3ccccc3n2)c1O | inconclusive [inhibitor, partial curve] | 
54 | Cc1ccc(C(=O)OCc2cn(-c3ccccc3)nn2)cc1 | inconclusive [inhibitor, full curve] | 
55 | O=C(O)CCn1c(SCCOc2ccccc2F)nc2ccccc21 | inconclusive [inhibitor, single point] | 
56 | CCNc1nc(SC(C)C(=O)Nc2ccccc2)nc(N2CCOCC2)n1 (stereo not given) | inconclusive [inhibitor, full curve, poor fit] | 
57 | CCOC(=O)N/N=C/c1ccc(F)cc1F | inconclusive [inhibitor, full curve, poor fit] | 
58 | O=C(CNS(=O)(=O)c1ccccc1)Nc1cccc([N+](=O)[O-])c1 | inconclusive [inhibitor, single point] | 
59 | CC(C)CCN1CCN(Cc2ccc(C#CCCO)cc2)CC1CCO (stereo not given) |  | inactive: -2.54%
60 | COCCN(C(=O)COC(=O)Cc1coc2cc(C)ccc12)c1c(N)n(Cc2ccccc2)c(=O)[nH]c1=O | inconclusive [inhibitor, full curve, poor fit] | 
61 | C=CC[n+]1c(-c2ccc(Cl)cc2Cl)csc1Nc1c(C)n(C)n(-c2ccccc2)c1=O |  | inactive: 0.905%
62 | CCOC(=O)NC1(C(F)(F)F)NC(=O)N(c2cccc(C(F)(F)F)c2)C1=O (stereo not given) | inconclusive [inhibitor, partial curve, poor fit] | 
63 | COc1ccc(CN(C)C2CCCCC2)cc1 | inconclusive [inhibitor, single point] | 
64 | COc1ccccc1CNC(=O)CCS(=O)(=O)c1ccc2c(c1)CC(C)N2C(=O)C1CC1 (stereo not given) | inactive | 
65 | COc1ccc(NC(=O)NC2(C(=O)N3CCN4CCCC4C3)CCCCC2)cc1 (stereo not given) | inconclusive [inhibitor, single point] | 

Source: PubChem BioAssay AID485294 (National Center for Advancing Translational Sciences (NCATS), 2010)
